Reference: publication PMC4336329 (PLoS ONE, 2015)
About 14,000 (4.5%) of roughly 310,000 compounds showed an effect of 50% or more. Effects have a minus sign here. The list shows a part of the results.

These compounds were tested against human ether-à-go-go-related gene (hERG) potassium channel (human, UniProt Q12809) (assay: primary screen, population patch clamp on CHO cells stably expressing hERG).
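Also: peak tail current of the secondary pulse compared with the same well before compound.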

Sequence of human ether-à-go-go-related gene (hERG) potassium channel (Q12809 whole entry, looked up): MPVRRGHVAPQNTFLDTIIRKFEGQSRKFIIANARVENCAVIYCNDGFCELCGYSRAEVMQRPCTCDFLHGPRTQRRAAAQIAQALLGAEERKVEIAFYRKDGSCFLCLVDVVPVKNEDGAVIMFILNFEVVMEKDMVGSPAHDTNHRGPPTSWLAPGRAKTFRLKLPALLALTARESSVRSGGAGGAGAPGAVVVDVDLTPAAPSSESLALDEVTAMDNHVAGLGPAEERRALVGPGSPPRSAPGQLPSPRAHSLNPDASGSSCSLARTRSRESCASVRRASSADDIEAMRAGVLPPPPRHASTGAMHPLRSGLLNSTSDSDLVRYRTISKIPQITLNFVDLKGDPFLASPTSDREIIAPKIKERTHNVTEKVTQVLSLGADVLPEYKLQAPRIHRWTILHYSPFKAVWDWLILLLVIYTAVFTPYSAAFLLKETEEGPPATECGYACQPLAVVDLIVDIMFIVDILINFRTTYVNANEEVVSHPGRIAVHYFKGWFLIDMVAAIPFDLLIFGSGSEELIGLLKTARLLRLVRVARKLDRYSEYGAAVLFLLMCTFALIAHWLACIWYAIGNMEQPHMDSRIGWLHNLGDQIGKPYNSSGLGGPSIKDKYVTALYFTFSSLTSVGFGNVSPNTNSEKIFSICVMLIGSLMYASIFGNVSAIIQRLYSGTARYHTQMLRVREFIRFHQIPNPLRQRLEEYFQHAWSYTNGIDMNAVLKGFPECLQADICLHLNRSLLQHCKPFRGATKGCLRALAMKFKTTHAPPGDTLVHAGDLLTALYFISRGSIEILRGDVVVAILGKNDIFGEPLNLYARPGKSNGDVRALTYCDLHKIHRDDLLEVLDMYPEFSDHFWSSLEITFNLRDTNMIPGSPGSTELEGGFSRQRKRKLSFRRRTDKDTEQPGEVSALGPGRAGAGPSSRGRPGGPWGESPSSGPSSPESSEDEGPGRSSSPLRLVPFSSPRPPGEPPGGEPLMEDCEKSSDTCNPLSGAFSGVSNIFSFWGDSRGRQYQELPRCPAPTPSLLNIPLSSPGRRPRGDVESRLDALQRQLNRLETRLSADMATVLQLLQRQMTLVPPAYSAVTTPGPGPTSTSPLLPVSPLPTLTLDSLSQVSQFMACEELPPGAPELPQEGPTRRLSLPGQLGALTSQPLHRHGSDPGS

First: O=C(NC(=S)Nc1ccc(O)cc1)C1CCCC1
Second: COc1ccc(NC(=O)CSCC(=O)Nc2nnc(C3CC3)s2)cc1
The “hERG current change (%, negative = inhibition) at 10uM” value of the first is higher: 16.5% for the first, 2.87% for the second.

First: CCOC(=O)c1c(NC(=O)CSc2nnc(Cc3ccccc3)o2)sc(C)c1C
Second: COC(=O)c1nnn(Cc2ccccc2)c1N
The “hERG current change (%, negative = inhibition) at 10uM” value of the first is lower: 13.8% for the first, 14.4% for the second.

Going from `O=C(COC(=O)/C=C/c1ccc(S(=O)(=O)N2CCOCC2)cc1)NCc1ccccc1` to `Cc1ccc(S(=O)(=O)N(CC(=O)Nc2ccccc2)C(=O)N2CCN(C)CC2)cc1`, the “hERG current change (%, negative = inhibition) at 10uM” value rises from -8.44% to 10.3%.

First: COc1ccc(CNS(=O)(=O)c2cc(Br)cc3c2N(C(C)=O)C(C)C3)cc1 (centres unmarked)
Second: COc1ccc(CCNCC(=O)Nc2ccc(C)c(S(=O)(=O)N(C)C)c2)cc1.O=C(O)C(=O)O
The “hERG current change (%, negative = inhibition) at 10uM” value of the first is lower: -40.9% for the first, -35.2% for the second.

Compared with `CC(=O)c1ccc(NC(=O)c2ccc3nc(-c4ccco4)c(-c4ccco4)nc3c2)cc1`, `COc1ccc(C(=O)Nc2ccc(C(=O)OCC(=O)c3ccccc3)cc2)cc1` is higher in “hERG current change (%, negative = inhibition) at 10uM” value: -0.276% for the first, 3.97% for the second.

Compared with `O=C(Nc1ccc(-c2csc(Nc3ccc(Cl)cc3)n2)cc1)c1cccc(C(F)(F)F)c1`, `FC(F)(F)c1nnc2c(Sc3ccc(Cl)cc3)nc3ccccc3n12` is lower in “hERG current change (%, negative = inhibition) at 10uM” value: 17.4% for the first, 13.5% for the second.

Going from `Cn1ccnc1SCC(=O)Nc1sccc1C#N` to `C=CCn1c(SCC(=O)Nc2nc(C)cs2)nnc1C(NC(=O)c1ccccc1)C(C)C` (centres unmarked), the “hERG current change (%, negative = inhibition) at 10uM” value falls from 0.227% to -9.2%.

Compared with `O=[N+]([O-])c1cccc(-c2noc(COc3ccccc3)n2)c1`, `COc1ccc(-n2c(COc3ccccc3)n[nH]c2=S)cc1` is lower in “hERG current change (%, negative = inhibition) at 10uM” value: 21% for the first, 19.6% for the second.

Compared with `O=C(c1ccc2c(=O)n(Cc3ccccc3)c(=S)[nH]c2c1)N1CCCC1`, `Cc1c(C(=O)N2CCCCC2)c(S(=O)(=O)NCCc2ccccc2)c(C)n1C` is lower in “hERG current change (%, negative = inhibition) at 10uM” value: 20.4% for the first, 10.5% for the second.

Compared with `O=C(Cn1ncc(Cl)c(Cl)c1=O)NC1CCCCC1`, `Cc1ccc(C(C(=O)NC2CCCCC2)N(Cc2cccnc2)C(=O)c2csnn2)cc1` (centres unmarked) is higher in “hERG current change (%, negative = inhibition) at 10uM” value: -41.2% for the first, -21.7% for the second.

First: CCOc1ccc(NS(=O)(=O)c2cc(C(=O)N3CCN(C(C)=O)CC3)ccc2Cl)cc1
Second: COc1ccc(F)cc1S(=O)(=O)Nc1cccc(C(=O)O)c1
The “hERG current change (%, negative = inhibition) at 10uM” value of the first is higher: 12.6% for the first, -4.14% for the second.

Going from `Cn1c(=O)n(C)c2cc(CN3C(=O)OC(C)(C)C3(C)O)ccc21` (centres unmarked) to `Cn1c(=O)n(C)c2cc(NC(=O)CSc3nc4ccccc4c(=O)[nH]3)ccc21`, the “hERG current change (%, negative = inhibition) at 10uM” value rises from 5.82% to 15.2%.

Compared with `S=C(Nc1cccnc1)NC1CC2CCC1C2` (centres unmarked), `CCCCN1CC[C@H]2C=CC[C@@H](C(=O)Nc3ccccc3)[C@H]2C1=O` is lower in “hERG current change (%, negative = inhibition) at 10uM” value: 17.9% for the first, -13.1% for the second.

Compared with `CCCCOc1ccc(C(=O)Nc2cc(C)c(OCC(=O)N3CCOCC3)c(C)c2)cc1`, `CCOc1ccc(NC(=O)c2cnc3scc(C)n3c2=O)cc1` is higher in “hERG current change (%, negative = inhibition) at 10uM” value: -24.8% for the first, -4.9% for the second.

Compared with `Cc1ccc(CNC(=O)c2ccc(CS(=O)Cc3ccccc3Cl)o2)cc1` (centres unmarked), `Cc1ccc(CSCCNC(=O)c2ccc(NS(C)(=O)=O)cc2)cc1` is lower in “hERG current change (%, negative = inhibition) at 10uM” value: -8.39% for the first, -15.6% for the second.

Going from `c1ccc(C[C@H]2CNCCN2CC2(c3ccccc3)CC2)cc1` to `O=C(Nc1cccc(F)c1)C1CCN(C(=O)Cc2ccccc2)CC1`, the “hERG current change (%, negative = inhibition) at 10uM” value rises from -14.9% to -7.55%.

First: Cc1ccc(NC(=O)Nc2ccc3c(c2)OCO3)c(OC(F)F)c1
Second: Cc1cccc(-c2noc(CN(C(=O)c3ccc4c(c3)OCO4)C(C)C)n2)c1
The “hERG current change (%, negative = inhibition) at 10uM” value of the first is higher: -6.73% for the first, -14.5% for the second.

Going from `OC(c1cc(-c2ccc(C(F)(F)F)cc2)nc(C(F)(F)F)c1)C1CCCCN1` (centres unmarked) to `O=C(Nc1ccc(F)cc1)c1cc(S(=O)(=O)N2CCCCC2)ccc1F`, the “hERG current change (%, negative = inhibition) at 10uM” value falls from 11.8% to -4.19%.

First: COc1cccc(CNC(=O)CCC2CCCN(Cc3ccc4c(c3)CCO4)C2)c1 (centres unmarked)
Second: COc1cccc(C2C(C(=O)/C=C/c3ccco3)=C(O)C(=O)N2CCN2CCOCC2)c1 (centres unmarked)
The “hERG current change (%, negative = inhibition) at 10uM” value of the first is lower: -33.6% for the first, 14.2% for the second.

Going from `CCOc1ccccc1NC(=O)Cc1cccs1` to `COc1ccccc1NC(=O)Nc1nnc(CC(=O)Nc2ccccc2)s1`, the “hERG current change (%, negative = inhibition) at 10uM” value falls from 3.18% to -8.21%.

Compared with `Cc1ccc(Sc2ncccc2C(=O)NCc2cc([N+](=O)[O-])ccc2O)cc1C`, `O=C(NCCc1c[nH]c2ccccc12)c1cc([N+](=O)[O-])cc([N+](=O)[O-])c1` is lower in “hERG current change (%, negative = inhibition) at 10uM” value: 9.22% for the first, -0.209% for the second.

First: CC1CCN(C(=O)C2CCN(S(=O)(=O)c3cc(Cl)ccc3Cl)CC2)CC1
Second: O=C(CSC1=NCCS1)N1CCN(c2ccc(Cl)cc2)CC1
The “hERG current change (%, negative = inhibition) at 10uM” value of the first is lower: -38% for the first, -29.3% for the second.

First: COc1ccccc1CNC(=O)c1csc2c1CCCC2
Second: CC(Oc1cccc(Cl)c1)C(=O)Nc1ccccc1N1CCCC1 (centres unmarked)
The “hERG current change (%, negative = inhibition) at 10uM” value of the first is higher: 2.46% for the first, -15.3% for the second.

First: CC(=O)c1cccc(NC(=O)COC(=O)c2ccc3c(c2)OCCO3)c1
Second: CCCOC(=O)c1ccc(NC(=O)CCC(=O)OCC)cc1
The “hERG current change (%, negative = inhibition) at 10uM” value of the first is lower: -1.54% for the first, 3% for the second.

Going from `Cc1ccccc1OCCOCCN1CCCCCC1.O=C(O)C(=O)O` to `COc1cccc(C(=O)N2CCN(c3ccccn3)CC2)c1`, the “hERG current change (%, negative = inhibition) at 10uM” value rises from -29.3% to 1.21%.

Going from `Nc1cc(=O)[nH]c(SCc2nnnn2-c2ccc(Cl)cc2)n1` to `Nc1cc(=O)[nH]c(SCC(=O)Nc2cc(Cl)ccc2Cl)n1`, the “hERG current change (%, negative = inhibition) at 10uM” value rises from 4.04% to 6.95%.

First: CCC(CC)c1nnc(NC(=O)c2cccc(S(=O)(=O)N3CCc4ccccc43)c2)s1
Second: COc1ccccc1NC(=O)Cn1nnc(-c2ccccc2NS(=O)(=O)c2ccccc2)n1
The “hERG current change (%, negative = inhibition) at 10uM” value of the first is higher: 8.7% for the first, 0.108% for the second.

Compared with `C=CCOc1ccc2ccccc2c1CNn1cn[nH]c1=S`, `CN(C)CCCN=Cc1c(O)n(Cc2ccccc2)c(=O)c2ccccc12` is lower in “hERG current change (%, negative = inhibition) at 10uM” value: -8.17% for the first, -64.5% for the second.

Compared with `Cc1cc(C)cc(-n2ncc3c2CCCC3NC(=O)c2csnn2)c1` (centres unmarked), `COc1ccc(C(C(=O)NC2CCCC2)N(C(=O)c2ccoc2C)c2cc(C)cc(C)c2)cc1` (centres unmarked) is higher in “hERG current change (%, negative = inhibition) at 10uM” value: -110% for the first, -10.9% for the second.

First: CC(=O)Nc1ccc2c(c1)nc(CCN1CCN(c3ccccn3)CC1)n2C
Second: COc1cc(/C=N/NC(=O)c2cnn3c(C)cc(-c4ccccc4)nc23)ccc1O
The “hERG current change (%, negative = inhibition) at 10uM” value of the first is higher: 18.6% for the first, -3.56% for the second.

Compared with `COc1ccc(-n2c(C)cc(C(=O)COC(=O)c3cc(OC)c(OC)cc3NC(=O)c3cccs3)c2C)cc1`, `CN(C)S(=O)(=O)c1ccc(Cl)c(NC(=O)COC(=O)c2cc(-c3ccccc3)nc3ccccc23)c1` is lower in “hERG current change (%, negative = inhibition) at 10uM” value: 14.4% for the first, 12.1% for the second.

First: O/N=C/c1c[nH]c2ccccc12
Second: COc1cc(/C=N/O)cc(Br)c1OS(=O)(=O)c1ccc(C)cc1
The “hERG current change (%, negative = inhibition) at 10uM” value of the first is higher: 5.61% for the first, 0.747% for the second.

Compared with `Cc1cccc(C(=O)NC(=S)NNC(=O)c2ccccc2Cl)c1`, `Cc1ccc(C)c(NC(=O)C(OC(=O)c2cnc(C)cn2)c2ccccc2)c1` (centres unmarked) is lower in “hERG current change (%, negative = inhibition) at 10uM” value: 29.8% for the first, 5.8% for the second.

Going from `COc1cc2ncnc(NCc3ccc(F)cc3)c2cc1OC` to `COc1ccc(NC(=O)CSc2nnc3ccc(-c4ccncc4)nn23)cc1OC`, the “hERG current change (%, negative = inhibition) at 10uM” value rises from -52.5% to -9.01%.

First: O=C(COC(=O)Cc1ccccc1[N+](=O)[O-])NCc1ccccc1Cl
Second: O=C1N=c2ccccc2=C1c1sc(=S)n(Cc2ccccc2Cl)c1O
The “hERG current change (%, negative = inhibition) at 10uM” value of the first is lower: 3.36% for the first, 5.81% for the second.

First: COc1ccc(-c2nnc(NC(=O)C3CCCN3S(=O)(=O)c3cccs3)o2)cc1 (centres unmarked)
Second: COc1ccc(-c2nc(CS(=O)(=O)CC(=O)Nc3ccc(Cl)cc3)c(C)o2)cc1
The “hERG current change (%, negative = inhibition) at 10uM” value of the first is lower: -3.47% for the first, -2.99% for the second.

First: CCOC(=O)c1c(C)[nH]c(C)c1S(=O)(=O)N(C)CC(=O)N1CCN(c2ccc(OC)cc2)CC1
Second: COc1cc(C(=O)Nc2ccc(S(=O)(=O)N3CCOCC3)cc2)c([N+](=O)[O-])cc1OC
The “hERG current change (%, negative = inhibition) at 10uM” value of the first is lower: -15.9% for the first, 19.4% for the second.

Going from `CCn1c(C)nc2cc(S(N)(=O)=O)ccc21` to `COc1ccc(S(=O)(=O)N(C)C)cc1NS(=O)(=O)c1ccc(F)c(F)c1F`, the “hERG current change (%, negative = inhibition) at 10uM” value falls from 21.9% to 9.39%.

First: CCOC(=O)c1[nH]c(=O)[nH]c1CNc1ccccc1C#N
Second: CCOP(=O)(/C(C#N)=C(/O)c1ccccc1)c1ccccc1 (centres unmarked)
The “hERG current change (%, negative = inhibition) at 10uM” value of the first is higher: 12.8% for the first, 8.44% for the second.

Compared with `CNc1nc(CC(C)=O)ns1`, `COc1ccc(CNC(=O)C(=O)NCCCn2ccnc2)cc1` is higher in “hERG current change (%, negative = inhibition) at 10uM” value: 12.7% for the first, 23.4% for the second.

Compared with `O=c1c2ccccc2nc(SCc2nnc(-c3ccccc3Br)o2)n1-c1ccccc1`, `O=C(NCCc1ccccc1)c1ccc(NC(=O)c2cccnc2)cc1` is higher in “hERG current change (%, negative = inhibition) at 10uM” value: -1.38% for the first, 14.2% for the second.

Compared with `COc1ccc2c(c1)c1nnc(SCC(=O)N3C(C)CCCC3C)nc1n2C` (centres unmarked), `Cc1ccc(C(C(=O)NC2CCCCC2)N2CCC3(CC2)OCCO3)cc1` (centres unmarked) is higher in “hERG current change (%, negative = inhibition) at 10uM” value: -26% for the first, 10% for the second.

Going from `Nc1ccc2nc(-c3cc(Cl)c(N)c(Cl)c3)[nH]c2c1` to `COCCN(C(=O)COC(=O)CCOc1ccccc1)c1c(N)n(Cc2ccccc2)c(=O)[nH]c1=O`, the “hERG current change (%, negative = inhibition) at 10uM” value rises from -6.72% to 16.6%.
